Source: the supplement of paper PMC8728848
The list shows a part of the results.

Legend:
Assay in all cases: glycan array binding signal (z-score within array); higher = stronger binding
Details in all cases: glycan notation: IUPAC condensed, linker removed
Fuc(a1-2)Gal = biological target: Fuc(a1-2)Gal
In short: (§1)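 Columns mapping to the same glycan were averaged after glycan names were converted to IUPAC-condensed notation. The data come from 3228 arrays in the Consortium for Functional Glycomics database, limited to those with an available protein sequence. Binding is reported as a within-array Z-score averaged across arrays of one protein sequence and across linkers.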

Fuc(a1-2)Gal(b1-3)GalNAc = biological target: Fuc(a1-2)Gal(b1-3)GalNAc
In short: as §1

[1] = biological target: Fuc(a1-2)Gal(b1-3)GalNAc(a1-3)[Fuc(a1-2)]Gal(b1-4)Glc
In short: as §1

[2] = biological target: Fuc(a1-2)Gal(b1-3)GalNAc(a1-3)[Fuc(a1-2)]Gal(b1-4)GlcNAc
In short: as §1

[3] = biological target: Fuc(a1-2)Gal(b1-3)GalNAc(b1-3)Gal
In short: as §1

[4] = biological target: Fuc(a1-2)Gal(b1-3)GalNAc(b1-3)Gal(a1-4)Gal(b1-4)Glc
In short: as §1

[5] = biological target: Fuc(a1-2)Gal(b1-3)GalNAc(b1-4)[Neu5Ac(a2-3)]Gal(b1-4)Glc
In short: as §1

Fuc(a1-2)Gal(b1-3)GlcNAc = biological target: Fuc(a1-2)Gal(b1-3)GlcNAc
In short: as §1

[6] = biological target: Fuc(a1-2)Gal(b1-3)GlcNAc(b1-2)Man(a1-3)[Fuc(a1-2)Gal(b1-3)GlcNAc(b1-2)Man(a1-6)]Man(b1-4)GlcNAc(b1-4)GlcNAc
In short: as §1

[7] = biological target: Fuc(a1-2)Gal(b1-3)GlcNAc(b1-2)Man(a1-3)[Fuc(a1-2)Gal(b1-3)GlcNAc(b1-2)Man(a1-6)]Man(b1-4)GlcNAc(b1-4)[Fuc(a1-6)]GlcNAc
In short: as §1

[8] = biological target: Fuc(a1-2)Gal(b1-3)GlcNAc(b1-3)Gal(b1-4)Glc
In short: as §1

[9] = biological target: Fuc(a1-2)Gal(b1-3)GlcNAc(b1-3)GalNAc
In short: as §1

[10] = biological target: Fuc(a1-2)Gal(b1-3)GlcNAc(b1-3)[Fuc(a1-3)[Gal(b1-4)]GlcNAc(b1-6)]Gal(b1-4)Glc
In short: as §1

[11] = biological target: Fuc(a1-2)Gal(b1-3)GlcNAc(b1-3)[Gal(b1-4)GlcNAc(b1-6)]Gal(b1-4)Glc
In short: as §1

[12] = biological target: Fuc(a1-2)Gal(b1-3)GlcNAc(b1-3)[Neu5Ac(a2-6)Gal(b1-4)GlcNAc(b1-6)]Gal(b1-4)Glc
In short: as §1

[13] = biological target: Fuc(a1-2)Gal(b1-3)[Fuc(a1-4)]GlcNAc
In short: as §1

[14] = biological target: Fuc(a1-2)Gal(b1-3)[Fuc(a1-4)]GlcNAc(b1-2)Man(a1-3)[Fuc(a1-2)Gal(b1-3)[Fuc(a1-4)]GlcNAc(b1-2)Man(a1-6)]Man(b1-4)GlcNAc(b1-4)GlcNAc
In short: as §1

[15] = biological target: Fuc(a1-2)Gal(b1-3)[Fuc(a1-4)]GlcNAc(b1-3)[Fuc(a1-3)[Gal(b1-4)]GlcNAc(b1-6)]Gal(b1-4)Glc
In short: as §1

[16] = biological target: Fuc(a1-2)Gal(b1-3)[Fuc(a1-4)]GlcNAc(b1-3)[Gal(b1-4)GlcNAc(b1-6)]Gal(b1-4)Glc
In short: as §1

Fuc(a1-2)Gal(b1-4)Glc = biological target: Fuc(a1-2)Gal(b1-4)Glc
In short: as §1

Fuc(a1-2)Gal(b1-4)Glc6S = biological target: Fuc(a1-2)Gal(b1-4)Glc6S
In short: as §1

Fuc(a1-2)Gal(b1-4)GlcNAc = biological target: Fuc(a1-2)Gal(b1-4)GlcNAc
In short: as §1

[17] = biological target: Fuc(a1-2)Gal(b1-4)GlcNAc(b1-2)Man(a1-3)[Fuc(a1-2)Gal(b1-4)GlcNAc(b1-2)Man(a1-6)]Man(b1-4)GlcNAc(b1-4)GlcNAc
In short: as §1

[18] = biological target: Fuc(a1-2)Gal(b1-4)GlcNAc(b1-2)Man(a1-3)[Fuc(a1-2)Gal(b1-4)GlcNAc(b1-2)Man(a1-6)]Man(b1-4)GlcNAc(b1-4)[Fuc(a1-6)]GlcNAc
In short: as §1

[19] = biological target: Fuc(a1-2)Gal(b1-4)GlcNAc(b1-2)[Fuc(a1-2)Gal(b1-4)GlcNAc(b1-4)]Man(a1-3)[Fuc(a1-2)Gal(b1-4)GlcNAc(b1-2)Man(a1-6)]Man(b1-4)GlcNAc(b1-4)GlcNAc
In short: as §1

[20] = biological target: Fuc(a1-2)Gal(b1-4)GlcNAc(b1-3)Gal(b1-4)GlcNAc
In short: as §1

[21] = biological target: Fuc(a1-2)Gal(b1-4)GlcNAc(b1-3)Gal(b1-4)GlcNAc(b1-3)Gal(b1-4)GlcNAc
In short: as §1

[22] = biological target: Fuc(a1-2)Gal(b1-4)GlcNAc(b1-3)GalNAc
In short: as §1

[23] = biological target: Fuc(a1-2)Gal(b1-4)GlcNAc(b1-3)[Fuc(a1-2)Gal(b1-4)GlcNAc(b1-6)]GalNAc
In short: as §1

[24] = biological target: Fuc(a1-2)Gal(b1-4)GlcNAc6S
In short: as §1

B1: UEA-I (Ulex europaeus), P22972 (protein)
chain: SDDLSFKFKNFSQNGKDLSFQGDASVIETGVLQLNKVGNNLPDETGGIARYIAPIHIWNCNTGEVASFITSFSFFMETSANPKAATDGLTFFLAPPDSPLRRAGGYFGLFEDTKDNDSSYQTVAVEFDTIGSPVNFDDPGFPHIGIDVNRVKSINAERWNKRYGLNNVANVEIIYEASSKTLTASLTYPSDQTSISVTSIVDLKEILPEWVSVGFSGGTYIGRQATHEVLNWYFTSNLIN
glycan array binding signal (z-score) (Fuc(a1-2)Gal): 0.604 | glycan array binding signal (z-score) (Fuc(a1-2)Gal(b1-3)GalNAc): -0.181 | glycan array binding signal (z-score) [1]: -0.176 | glycan array binding signal (z-score) [2]: -0.187 | glycan array binding signal (z-score) [3]: -0.178 | glycan array binding signal (z-score) [4]: -0.178 | glycan array binding signal (z-score) [5]: -0.19 | glycan array binding signal (z-score) (Fuc(a1-2)Gal(b1-3)GlcNAc): -0.178 | glycan array binding signal (z-score) [6]: -0.168 | glycan array binding signal (z-score) [7]: -0.179 | glycan array binding signal (z-score) [8]: -0.182 | glycan array binding signal (z-score) [9]: -0.18 | glycan array binding signal (z-score) [10]: -0.185 | glycan array binding signal (z-score) [11]: -0.179 | glycan array binding signal (z-score) [12]: -0.179 | glycan array binding signal (z-score) [13]: -0.184 | glycan array binding signal (z-score) [14]: -0.17 | glycan array binding signal (z-score) [15]: -0.175 | glycan array binding signal (z-score) [16]: -0.167 | glycan array binding signal (z-score) (Fuc(a1-2)Gal(b1-4)Glc): 5.21 | glycan array binding signal (z-score) (Fuc(a1-2)Gal(b1-4)Glc6S): 8.13 | glycan array binding signal (z-score) (Fuc(a1-2)Gal(b1-4)GlcNAc): 6.42 | glycan array binding signal (z-score) [17]: 0.889 | glycan array binding signal (z-score) [18]: -0.179 | glycan array binding signal (z-score) [19]: -0.057 | glycan array binding signal (z-score) [20]: 1.54 | glycan array binding signal (z-score) [21]: 1.43 | glycan array binding signal (z-score) [22]: -0.174 | glycan array binding signal (z-score) [23]: 0.471 | glycan array binding signal (z-score) [24]: 6.86
